Results published in PubChem BioAssay (Tox21).
This list was built around the results that the source calls inconclusive (neither active nor inactive); the mix of calls is not that of the screen. Potencies of inconclusive entries are left out as doubtful fits. Activity calls are given as the source filed them. The call rests on the fitted dose curve; in most records, active means well fitted cell-killing curve with a large enough effect in the repeat runs; inconclusive means weak or mixed curves, or effect the other way; inactive means no such curve, though single readings can be large or run the other way.

experiment: qHTS assay to identify small molecule antagonists of the vitamin D receptor (VDR) signaling pathway - cell viability counter screen (AID 743225); conditions: VDR-bla HEK293T viability, CellTiter-Glo luminescence, 16 h; viability change, negative = cytotoxic: at 61 µM (top of the series) unless noted; further: nearly all actives have a fitted effect of over 50% in size
Text: U.S. Tox21 Program National Center for Advancing Translational Sciences [NCATS] NIH Chemical Genomics Center [NCGC] U.S. Environmental Protection Agency [EPA] National Institutes of Environmental Health Sciences [NIEHS] National Toxicology Program [NTP] U.S. Food and Drug Administration [FDA] Tox21 Assay Overview: The vitamin D receptor (VDR), a member of nuclear hormone receptor superfamily, plays a critical role in calcium homeostasis and bone metabolism. It is also involved in cell differentiation and growth, and thrombogenicity. To identify the compounds that inhibit VDR signaling, the VDR-UAS-bla HEK 293T cell line (Invitrogen, Carlsbad, CA, USA) containing a beta-lactamase reporter gene under the control of an upstream activator sequence (UAS) was used to screen the Tox21 10K compound library. The cytotoxicity of the Tox21 compound library against the VDR-bla cell line was tested in parallel by measuring the cell viability using CellTiter-Glo assay (Promega, Madison, WI) in the same wells.
Tox21 Assay Protocol Summary: VDR-bla cells were dispensed at 2,000 cells/5 uL of assay medium per well into black wall/clear-bottom 1536-well plates using a Multidrop Combi (Thermo Fisher Scientific, Waltham, MA) dispenser. After the assay plates were incubated at a 37C and 5% CO2 for 4 h, 23 nL of compounds dissolved in DMSO, positive controls or DMSO only was transferred to the assay plate by a Pintool station (Kalypsys, San Diego, CA), followed by addition of 1 uL of 1-alpha, 25-Dihydroxy Vitamin D3 (3 nM, final concentration in the wells) using a Bioraptr Flying Reagent Dispenser (FRD) workstation (Beckman Coulter, Indianapolis, IN). The plates were incubated at 37C and 5% CO2 for 16 h, and then 1 uL of LiveBLAzerTM B/G FRET substrate was added using a Bioraptr FRD. The plates were incubated at room temperature for 2 h and fluorescence intensity was measured by an Envision plate reader (PerkinElmer, Shelton, CT). For cell viability readout that measures cytotoxicity, 3 ul/well of CellTiter-Glo reagent was added into the assay plates using a Bioraptr FRD. After 30 min incubation at room temperature, the luminescence intensity in the plates was measured using a ViewLux plate reader (PerkinElmer).
On the % scale 0 is the no-effect control and ±100 the full control effect; potency means the concentration at half of the fitted maximal effect; tags describe the fitted curve by direction and shape.

SMILES | viability change, negative = cytotoxic | Potency
CC[N+](CC)(CC)CCOc1ccc(/C=C/c2ccccc2)cc1 | inactive: -9.11% | –
O=C1CCCCCCCCCCCCCCO1 | inactive: 4.92% | –
COCCc1ccc(OCC2CO2)cc1 (stereo not given) | inactive: -1.49% | –
COc1cc(N)c(Cl)cc1C(=O)NC1CCN(Cc2ccccc2)CC1 | inactive: -30.5% | –
COc1ccc(O)cc1 | – | inactive
CN1CCN(Cc2cc(-c3ccc4[nH]c(=O)oc4c3)co2)[C@@H](c2ccc(F)cc2)C1 | – | inconclusive [cytotoxic, partial curve, poor fit]
Cc1nccn1-c1ccc(Sc2cccc(C3(C(N)=O)CCOCC3)c2)cc1 | inactive: -1.75% | –
CC1(C)O[C@@H]2[C@@H](CO[C@@]3(COS(N)(=O)=O)OC(C)(C)O[C@@H]23)O1 | – | inconclusive [cytotoxic, single point]
C=CCOC(=O)C(=C)C | – | inconclusive [cytotoxic, single point]
C[C@@H]1O[C@@H](OC[C@H]2O[C@@H](Oc3c(-c4ccc(O)c(O)c4)oc4cc(O)cc(O)c4c3=O)[C@H](O)[C@@H](O)[C@@H]2O)[C@H](O)[C@H](O)[C@H]1O | – | inconclusive [cytotoxic, single point]
Fc1ccc(C(c2ccc(F)cc2)N2CCN(C/C=C/c3ccccc3)CC2)cc1 | – | inconclusive [cytotoxic, single point]
CC(=O)OCCc1ccccc1 | – | inconclusive [cytotoxic, full curve, poor fit]
Cc1onc(-c2ccccc2Cl)c1C(=O)N[C@@H]1C(=O)N2[C@@H]1SC(C)(C)[C@@H]2C(=O)O | inactive: -0.188% | –
COc1cc(/C=C/c2ccccc2)oc(=O)c1 | inactive: 10% [at 78.8 µM] | –
Fc1ccc([C@@H]2CCNC[C@H]2COc2ccc3c(c2)OCO3)cc1 | – | inconclusive [cytotoxic, partial curve, poor fit]
O=C1CCCC(=O)C1 | inactive: 2.39% | –
CC(C)(C)C1CCCCC1=O (stereo not given) | inactive: 14.2% | –
CS(=O)(=O)c1ccc([C@@H](O)[C@@H](CO)NC(=O)C(Cl)Cl)cc1 | – | inconclusive [cytotoxic, partial curve, poor fit]
CCC1CCC(CCC(=O)O)C1 (stereo not given) | – | inconclusive [cytotoxic]
Cc1cc(=O)[nH]c(C(C)C)n1 | – | inconclusive [cytotoxic, full curve, poor fit]

SMILES | viability change, negative = cytotoxic | Potency
Cc1ncc(COP(=O)(O)O)c(C=O)c1O | inactive: -0.75% | –
CCc1nn(CCCN2CCN(c3cccc(Cl)c3)CC2)c(=O)n1CCOc1ccccc1 | inconclusive: -36.1% [cytotoxic] | –
Cc1cc(C(C#N)c2ccc(Cl)cc2)c(Cl)cc1NC(=O)c1cc(I)cc(I)c1O (stereo not given) | inactive: -17.2% | –
CCCCCc1ccco1 | – | inconclusive [cytotoxic, single point]
CC(C)NCC(O)COc1cccc2ccccc12 (stereo not given) | – | inconclusive [cytotoxic, full curve, poor fit]
CC(=O)S[C@@H]1CC2=CC(=O)CC[C@]2(C)[C@H]2CC[C@@]3(C)[C@@H](CC[C@@]34CCC(=O)O4)[C@H]12 | – | inconclusive [cytotoxic, full curve, poor fit]
CC(C)C(=O)Nc1ccc([N+](=O)[O-])c(C(F)(F)F)c1 | – | inconclusive [cytotoxic, partial curve, poor fit]
NC(=O)c1cccc([N+](=O)[O-])c1 | inactive: -0.422% | –
CCC(C)(CCC(C)C)C(=O)[O][Sn]([CH3])([CH3])[O]C(=O)C(C)(CC)CCC(C)C (stereo not given) | inactive: 3.16% | –
O=S(=O)(O)CO | – | inconclusive [cytotoxic, full curve, poor fit]
CCO[Si](CCC1CCC2OC2C1)(OCC)OCC (stereo not given) | inactive: 6.73% | –
CC[C@@H](N)CO | – | inconclusive [cytotoxic, single point]
COc1ccccc1N=Nc1c(S(=O)(=O)O)cc2cc(S(=O)(=O)O)cc(NC(C)=O)c2c1O | inactive: 0.005% | –
Cc1ccc([N+](=O)[O-])cc1S(=O)(=O)O | – | inconclusive [cytotoxic, single point]
CC(C)=CCOc1ccc(/C=C/C(=O)c2ccc(OCC=C(C)C)cc2OCC(=O)O)cc1 | – | inconclusive [cytotoxic, partial curve, poor fit]
CCCCCCCCCCCCCCCC(=O)OCC | inactive: 7.3% | –
CCCC(=O)CC | – | inconclusive [cytotoxic, full curve, poor fit]
Cc1cc(CC(=O)O)n(C)c1C(=O)c1ccc(Cl)cc1 | – | inactive
CCC(=O)c1ccc2c(c1)N(CCCN(C)C)c1ccccc1S2 | – | inconclusive [cytotoxic, partial curve]
Nc1nc(Cl)nc2c1ncn2[C@H]1C[C@H](O)[C@@H](CO)O1 | inactive: -1.24% | –
